Results on 134 variants are retold here after a collection of fitness landscapes (doi:10.1126/science.1257360).

First the molecules themselves.
B1: PhoQ; a variant is named by its letters at X, in order, P23837 (parent)
chain: MKKLLRLFFPLSLRVRFLLATAAVVLVLSLAYGMVALIGYSVSFDKTTFRLLRGESNLFYTLAKWENNKLHVELPENIDKQSPTMTLIYDENGQLLWAQRDVPWLMKMIQPDWLKSNGFHEIEADVNDTSLLLSGDHSIQQQLQEVREDDDDAEMTHSVAVNVYPATSRMPKLTIVVVDTIPVELKSSYMVWSWFIYVLSANLLLVIPLLWVAAWWSLRPIEALAKEVRELEEHNRELLNPATTRELTSLVRNLNRLLKSERERYDKYRTTLTDLTHSLKTPLXXLQXXLRSLRSEKMSVSDAEPVMLEQISRISQQIGYYLHRASMRGGTLLSRELHPVAPLLDNLTSALNKVYQRKGVNISLDISPEISFVGEQNDFVEVMGNVLDNACKYCLEFVEISARQTDEHLYIVVEDDGPGIPLSKREVIFDRGQRVDTLRPGQGVGLAVAREITEQYEGKIVAGESMLGGARMEVIFGRQHSAPKDE

Some of the results follow.

The variants in the experiment derive from B1. Put plainly: enrichment ratio after two sorts for PhoP signalling (ratio (wild type AVST 3.29)); higher = more functional. The settings on record: with PhoP (E. coli).
On to AHGW, for which the enrichment ratio was at most 0.25.

Turning to TLVV, the enrichment ratio was at most 0.25.

Take VTQE: the enrichment ratio was at most 0.25.

Regarding NTNF, the enrichment ratio is at most 0.25.

On to AHSH, for which the enrichment ratio was at most 0.25.

In the case of ACPW, the enrichment ratio was at most 0.25.

In the case of TFLS, the enrichment ratio was found to be 3.13.

As for FDHQ, the enrichment ratio is at most 0.25.

With YDVS, the enrichment ratio is at most 0.25.

NALD: the enrichment ratio is at most 0.25.

In the case of KDFY, the enrichment ratio is at most 0.25.

FPML: the enrichment ratio was at most 0.25.

Regarding VRPL, the enrichment ratio was at most 0.25.

Regarding QTHP, the enrichment ratio is at most 0.25.

As to PMTQ, the enrichment ratio is at most 0.25.

Regarding KASQ, the enrichment ratio was at most 0.25.

For MMLF, the enrichment ratio is at most 0.25.

As for ARDC, the enrichment ratio was at most 0.25.

Take SQHW: the enrichment ratio was at most 0.25.

Turning to RMWG, the enrichment ratio is at most 0.25.

In the case of ASPG, the enrichment ratio is at most 0.25.

For IHVH, the enrichment ratio is at most 0.25.

For QGIP, the enrichment ratio was at most 0.25.

Take LITK: the enrichment ratio was at most 0.25.

For GYMR, the enrichment ratio is at most 0.25.

As to IMAR, the enrichment ratio was at most 0.25.

With SFDI, the enrichment ratio was 0.302.

On to FPEI, for which the enrichment ratio was at most 0.25.

Take SATA: the enrichment ratio was found to be 2.59.

For the variant IKWD, the enrichment ratio was at most 0.25.

On to PWYF, for which the enrichment ratio was at most 0.25.

For the variant DLDK, the enrichment ratio is at most 0.25.

As for GHRN, the enrichment ratio was at most 0.25.

For the variant IAEA, the enrichment ratio was at most 0.25.

In the case of HNWD, the enrichment ratio was at most 0.25.

Turning to IKPW, the enrichment ratio is at most 0.25.

As to KCKC, the enrichment ratio is at most 0.25.

Take GKTV: the enrichment ratio is at most 0.25.

Regarding DTII, the enrichment ratio was at most 0.25.

Consider HFEK, for which the enrichment ratio is at most 0.25.

With IVIH, the enrichment ratio was at most 0.25.

Take KFCW: the enrichment ratio was at most 0.25.

Turning to ASFE, the enrichment ratio was at most 0.25.

As for GRNP, the enrichment ratio is at most 0.25.

Regarding TYCI, the enrichment ratio is at most 0.25.

On to FECV, for which the enrichment ratio amounted to 5.83.

Consider LTMP, for which the enrichment ratio was at most 0.25.

Take GCSD: the enrichment ratio is at most 0.25.

Take MEPL: the enrichment ratio is at most 0.25.

With FWAV, the enrichment ratio is at most 0.25.

As to DDVC, the enrichment ratio is at most 0.25.

As for TSRT, the enrichment ratio is at most 0.25.

Turning to MQRN, the enrichment ratio is at most 0.25.

For VDYI, the enrichment ratio was at most 0.25.

For the variant YFEG, the enrichment ratio is at most 0.25.

As to PLTQ, the enrichment ratio was at most 0.25.

As for YCVM, the enrichment ratio is at most 0.25.

With TAGY, the enrichment ratio amounted to 34.1.

With WSVW, the enrichment ratio was at most 0.25.

As to VTVL, the enrichment ratio was 0.537.

Turning to RGQR, the enrichment ratio is at most 0.25.

Take HSHS: the enrichment ratio was at most 0.25.

For the variant FIMT, the enrichment ratio was at most 0.25.

For GVKF, the enrichment ratio was at most 0.25.

With IKDD, the enrichment ratio was at most 0.25.

Turning to RQRW, the enrichment ratio is at most 0.25.

As for FSHE, the enrichment ratio was at most 0.25.

For the variant PCFE, the enrichment ratio was at most 0.25.

RLWI: the enrichment ratio was at most 0.25.

DPWK: the enrichment ratio was at most 0.25.

Turning to KMRR, the enrichment ratio was at most 0.25.

Take NKYT: the enrichment ratio was at most 0.25.

Consider IADL, for which the enrichment ratio was at most 0.25.

As for YVTD, the enrichment ratio was at most 0.25.

In the case of HMCG, the enrichment ratio is at most 0.25.

On to LIKD, for which the enrichment ratio was at most 0.25.

For the variant EHYW, the enrichment ratio was at most 0.25.

As to PDPH, the enrichment ratio is at most 0.25.

As to FPSE, the enrichment ratio is at most 0.25.

With EIGS, the enrichment ratio is at most 0.25.

On to HKNA, for which the enrichment ratio was at most 0.25.

Take LFMF: the enrichment ratio is at most 0.25.

TQLH: the enrichment ratio is 8.84.

As to PAGH, the enrichment ratio is at most 0.25.

For YWED, the enrichment ratio is at most 0.25.

For the variant TCQE, the enrichment ratio is at most 0.25.

With FGIL, the enrichment ratio is 1.13.

With RTSR, the enrichment ratio was at most 0.25.

Take PLAP: the enrichment ratio was at most 0.25.

For WQAS, the enrichment ratio is at most 0.25.

For MRRN, the enrichment ratio was at most 0.25.

WVKM: the enrichment ratio was at most 0.25.

Turning to SSDW, the enrichment ratio was at most 0.25.

Consider QCSR, for which the enrichment ratio was at most 0.25.

Regarding PMVH, the enrichment ratio was at most 0.25.

In the case of TDIA, the enrichment ratio is at most 0.25.

Regarding FGQL, the enrichment ratio is at most 0.25.

In the case of KKFD, the enrichment ratio was at most 0.25.

Consider EFCE, for which the enrichment ratio is at most 0.25.

As for DNHI, the enrichment ratio was at most 0.25.

In the case of HHWN, the enrichment ratio was at most 0.25.

Turning to RNPP, the enrichment ratio is at most 0.25.

As to KCLM, the enrichment ratio is at most 0.25.

For DAAR, the enrichment ratio is 0.417.

With GDTI, the enrichment ratio was at most 0.25.

Turning to LIMH, the enrichment ratio was at most 0.25.

For the variant NWAQ, the enrichment ratio is at most 0.25.

Regarding HVCH, the enrichment ratio is at most 0.25.

Consider DNSL, for which the enrichment ratio is at most 0.25.

Regarding RLCD, the enrichment ratio was at most 0.25.

As for IHEQ, the enrichment ratio was at most 0.25.

Regarding PWAS, the enrichment ratio is at most 0.25.

For YLQC, the enrichment ratio is at most 0.25.

For DNPE, the enrichment ratio was at most 0.25.

As to VFHG, the enrichment ratio is at most 0.25.

As to HSSA, the enrichment ratio is at most 0.25.

As for DNIF, the enrichment ratio is at most 0.25.

For the variant VRWW, the enrichment ratio is at most 0.25.

In the case of EYSV, the enrichment ratio was at most 0.25.

On to KVRM, for which the enrichment ratio was at most 0.25.

Turning to NSVG, the enrichment ratio was at most 0.25.

With YFTR, the enrichment ratio was at most 0.25.

With TYQH, the enrichment ratio was at most 0.25.

As to GTHS, the enrichment ratio is at most 0.25.

For the variant SNQM, the enrichment ratio was determined as 9.41.

For HKCN, the enrichment ratio was at most 0.25.

As for VGVP, the enrichment ratio is at most 0.25.

Consider GRSD, for which the enrichment ratio was at most 0.25.

QYVR: the enrichment ratio was at most 0.25.

For RYTL, the enrichment ratio was at most 0.25.

With HSWF, the enrichment ratio was at most 0.25.

As to YMHQ, the enrichment ratio is at most 0.25.

Consider GFHT, for which the enrichment ratio was at most 0.25.

On to MMRW, for which the enrichment ratio is at most 0.25.
